# Assay results from PubChem BioAssay AID686979 (National Center for Advancing Translational Sciences (NCATS), 2013).
# Screen size: about 420,000 compounds; about 50,000 (12%) were called active. Inconclusive results, whose numbers are uncertain, are shown with a selection of clear calls. Calls follow the shape of the dose curve; as a rule, active = well fitted inhibition curve with a large enough effect; inconclusive = small, poorly fitted or top-dose-only effect; inactive = flat fitted curve, though single readings scatter. No potency is given beside an inconclusive call; the fits are too rough.
# Assay: qHTS for Inhibitors of human tyrosyl-DNA phosphodiesterase 1 (TDP1): qHTS in cells in presence of CPT; also: nearly all actives have a fitted effect of over 55% in size
# Settings: chicken DT40 Tdp1-/-;hTDP1 cells + 20 nM CPT, ATP luminescence, 48 h; activity change, negative = growth inhibition: at 46.2 µM (top of the series) unless noted
# Summary of the method: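 Cell growth measured by CellTiter-Glo luminescence after a minimum 48 h, 37 C compound exposure with 20 nM CPT in Tdp1-knockout DT40 cells stably expressing hTDP1, seeded 400/well; qHTS titration format.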
# % is scaled to controls: 0 for no effect and ±100 for the full control effect; potency is read from the fitted curve at half-maximal effect; tags tell the direction and shape of the fitted curve.
Compound,Potency,"activity change, negative = growth inhibition"
Cc1ccc(C(=O)CNc2ccc(C)cc2C)cc1,active: 23.1 µM,
Cc1onc(-c2ccccc2)c1C(=O)Nc1ccncc1,,inconclusive: -8.86% [inhibitor]
O=C(c1cn(-c2ccccc2)nc1-c1ccccc1)n1nnc2ccccc21,"inconclusive [inhibitor, single point]",
Clc1ccc(Cn2c(-c3cccnc3Cl)nc3ccccc32)cc1,"inconclusive [inhibitor, single point]",
COc1ccc(C(=O)N2CCN(c3nc4ccccc4o3)CC2)cc1OC,active: 16.4 µM,
Cc1ccccc1C(=O)Nc1ccnn1C1CCN(C(C)Cc2ccccc2F)CC1 (configuration not stated),active: 23.1 µM,
CC(C)(C)c1ccc(C(=O)OC/C(O)=C(\C#N)c2nc3ccccc3s2)cc1,,inconclusive: -31.4% [inhibitor]
CCOCCCN(C)C1CCN(C(=O)c2oc3ccccc3c2NC(=O)COc2cccc(C)c2)CC1,"inconclusive [inhibitor, single point]",
O=Cc1cn(-c2ccccc2)nc1-c1cc2ccccc2oc1=O,"inconclusive [inhibitor, single point]",
C=CCOc1ccc(C2N3CC4(CC)CN2CC(CC)(C3)C4=O)cc1 (configuration not stated),"inconclusive [inhibitor, single point]",
CCN(CC)S(=O)(=O)c1cccc(-c2nc3n(n2)Cc2ccccc2-3)c1,"inconclusive [inhibitor, single point]",
Nc1cccc(C(=O)c2ccccc2C(=O)O)c1,inactive,
C[C@@]12C(=O)Nc3ccc(F)cc3C(=O)N1[C@H]1c3cc(Br)ccc3OC[C@@H]1[C@@H]2c1ccccc1,"inconclusive [inhibitor, single point]",
Cc1ccc(OCCC(=O)OCC(=O)Nc2cc(S(=O)(=O)N(C)C)ccc2C)cc1,"inconclusive [inhibitor, single point]",
CCOc1ccc(CCNC(=O)c2cc(S(=O)(=O)N3CCOCC3)ccc2C)cc1OCC,inactive,
O=C(CSc1ccc(F)cc1)NC(=O)NCc1ccccc1,inactive,
COc1ccc(OC)c(N2C(=O)CC(Cc3ccc(C)cc3)C2=O)c1 (configuration not stated),inactive,
CCOC(=O)c1c(Cc2ccccc2)c[nH]c1C,"inconclusive [inhibitor, single point]",
CC(/C=N/NC(=O)c1ccccc1C)=C\c1ccccc1,"inconclusive [inhibitor, partial curve]",
C=C(CO)C1Cc2c(ccc3c(=O)c4c(oc23)COc2cc(OC)c(OC)cc2-4)O1 (configuration not stated),"inconclusive [inhibitor, partial curve]",
COc1ccc(CCNC(=O)C2CCC(C(C)(C)C)CC2)cc1OC (configuration not stated),"inconclusive [inhibitor, single point]",
CC(C)C[C@H]1CN=C(Nc2ccccc2)N1CC1CCCC1,"inconclusive [inhibitor, single point]",
Cc1cccc(NC(=S)NNc2cccc(Cl)c2)c1,active: 16.4 µM,
Cc1ccc(NC(=O)COC(=O)C2(c3ccc(Cl)cc3)CCCC2)cc1,active: 23.1 µM,

Compound,Potency,"activity change, negative = growth inhibition"
COc1ccccc1C(=O)NC(CCSC)C(=O)N1CCN(C(C)=O)CC1 (configuration not stated),inactive,
CCCc1cc(=O)oc2cc(C)cc(OCC(=O)NCCCn3ccnc3)c12,"inconclusive [inhibitor, single point]",
Cc1c(C(=O)Nc2ccc(Cl)cc2)c2ccccn2c1C(=O)c1ccc(F)cc1,inactive,
Cc1cccc2cc(C#N)c(N3CCC(O)CC3)nc12,"inconclusive [inhibitor, single point]",
O=C(CSc1ccc2nnc(CCNS(=O)(=O)c3ccccc3)n2n1)Nc1nc2ccccc2s1,"inconclusive [inhibitor, partial curve, poor fit]",
Cc1ccc(C(=O)OCC(=O)N2CCC(C)CC2)cc1S(=O)(=O)N1CCCCC1,inactive,
O=C(CC(=O)c1ccccc1)Nc1ccccc1C(F)(F)F,inactive,
CC(C)Cn1cc(NC(=O)NCc2ccccc2Cl)c2ccccc2c1=O,"inconclusive [inhibitor, partial curve]",
O=C(NNC(=S)Nc1ccccc1C(F)(F)F)c1ccc(Br)o1,inactive,
Cc1ccccc1N(CC(=O)NCCSC1CCCCC1)S(=O)(=O)c1ccccc1,"inconclusive [inhibitor, single point]",
COc1ccc(-c2nc3cnc(N4CCN(C)CC4)nc3n(C)c2=O)cc1,"inconclusive [inhibitor, full curve]",
COc1cccc(NC(=O)c2ccc3nc(Cc4ccccc4)oc3c2)c1,active: 16.4 µM,
CC(=O)c1cccc(NC(=O)C(C)OC(=O)c2ccc(Br)o2)c1 (configuration not stated),"inconclusive [inhibitor, partial curve]",
CC(C)(C)c1ccc(NC(=O)Nc2ccc(F)cc2)cc1,active: 5.17 µM,
CC(C(=O)N(C)C1CCS(=O)(=O)C1)N1C(=O)/C(=C/c2ccco2)SC1=S (configuration not stated),"inconclusive [inhibitor, single point]",
Cc1ccc(S(=O)(=O)NCC23C=CC(O2)C2C(=O)N(c4ccccc4)C(=O)C23)cc1 (configuration not stated),"inconclusive [inhibitor, single point]",
CN(CC(=O)Nc1ccc(Cl)c(Cl)c1)C(=O)C1CCC1,inactive,
CCCn1c(N)c(N2CCCCC2)c(=O)n(CC(=O)Nc2ccc(OC(F)(F)F)cc2)c1=O,"inconclusive [inhibitor, partial curve]",
CCCCNCC#CCOc1cc(C)ccc1C(C)C,"inconclusive [inhibitor, single point]",
CC(C)Oc1cccc(C2NC(=O)c3ccccc3O2)c1 (configuration not stated),inactive,
O=C(NCc1ccccc1Cl)C1CCC(=O)N(CCCN2CCCC2=O)C1 (configuration not stated),inactive,
CC1(C(=O)Nc2ccc3c(c2)OCCO3)CCN1C(=O)Cc1cc(F)ccc1F (configuration not stated),"inconclusive [inhibitor, single point]",
Cc1[nH][nH]c(=O)c1C(c1ccc(-c2ccc(Cl)c(C(=O)O)c2)o1)c1c(C)[nH][nH]c1=O,inactive,
